Laboratory results reported in patent publication US20250333445A1 (ONCOPEPTIDES INNOVATION 1, published 2025).

Experiments:
[1] = target: T1, BCMA on MM.1S multiple myeloma cells (human, UniProt Q02223 1-184); experiment: cell-based or functional assay
T1 sequence (looked up): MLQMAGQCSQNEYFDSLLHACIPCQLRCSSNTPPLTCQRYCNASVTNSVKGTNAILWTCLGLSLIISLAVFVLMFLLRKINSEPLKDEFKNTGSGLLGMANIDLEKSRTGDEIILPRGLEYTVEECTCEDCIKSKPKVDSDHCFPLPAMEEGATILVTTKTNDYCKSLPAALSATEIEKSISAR

[2] = target: T2, hCD16a F158 (Cat. no. CDA-H5220, Acro Biosystems) (human, UniProt P08637 17-208); experiment: SPR (Biacore T200), single cycle kinetics, immobilised hCD16a; apparent KD (avidity)
T2 construct: also called human CD16a F158; hCD16a F158 allotype

[3] = target: T3, hCD16a V158 (Cat. no. CD8-H52H4, Acro Biosystems) (human, UniProt P08637 17-208); experiment: as above
T3 construct: also called human CD16a V158; hCD16a V158 allotype

[4] = target: T2, hCD16a F158 (Cat. no. CDA-H5220, Acro …); experiment: SPR (Biacore 8K), 200 nM hCD16a over the thiol-coupled binder, 4 °C
[5] = target: T3, hCD16a V158 (Cat. no. CD8-H52H4, Acro …); experiment: SPR, 200 nM hCD16a over thiol-immobilised binder, 4 °C
[6] = target: T2, hCD16a F158 (Cat. no. CDA-H5220, Acro …); experiment: SPR, equilibrium responses, immobilised hCD16a
[7] = target: T3, hCD16a V158 (Cat. no. CD8-H52H4, Acro …); experiment: SPR, equilibrium responses, immobilised hCD16a

B1: Anti-BCMA (1-E6)-A10-A10-His6 (designed binder)
chain: VDNKFNKENQFADEEIAALPNLNFYQKWAFIRKLMDDPSQSANLLAEAKKLNDAQAPKGGGSGGGGSGGGGSGVDNKFNKEVQMAQFEIRKLPNLNHHQSFAFIKSLMDDPSQSANLLAEAKKLNDAQAPKGGGSGGGGSGGGGSGVDNKFNKEVQMAQFEIRKLPNLNHHQSFAFIKSLMDDPSQSANLLAEAKKLNDAQAPKYYHHHHHH
notes: also called anti-BCMA-A10-A10-His6
Question: B1 was tested. Which “EC50, 8-hour flow cytometry-based killing assay, NK cells and MM.1s (E:T 5:1)” value [1] did it give?
Answer: 0.4 nM

Question: What about the “EC90, 8-hour flow cytometry-based killing assay, NK cells and MM.1s (E:T 5:1)” value [1] of the same binder?
Answer: 3.8 nM

Question: What about the Kd [2] of the same binder?
Answer: 0.4 nM

Question: And the Kd [3]?
Answer: 0.3 nM

B2: His6-A11-Cys (designed binder)
chain: GSSHHHHHHYYLEVDNKFNKEQFYARDEIDLLPNLNEDQKWAFYMSLIDDPSQSANLLAEAKKLNDAQAPKC
notes: immobilised on the chip by thiol coupling through the C-terminal Cys
Question: Does B2 bind [4]?
Answer: binds

Question: Does B2 bind [5]?
Answer: binds

B3: His6-H09-ABDWT (designed binder)
chain: GSSHHHHHHYYLEVDNKFNKEFWIAESEIESLPNLNIYQKWAFKYSLADDPSQSANLLAEAKKLNDAQAPKVDYVLAEAKVLANRELDKYGVSDYYKNLINNAKTVEGVKALIDEILAALP
Question: How did the Kd [6] turn out when B3 was run?
Answer: 621 nM

Question: And the Kd [7]?
Answer: 4900 nM
